Experimental data as given in article PMC12820563.
This is one part of the list. The list includes weakly bound sequences.

These sequences were tested against T1, MBP-FoxP3dN (UniProt Q99JB6) (assay: PD-seq (MBP pull-down with sequencing)). Details: 20 mM Tris-HCl pH 7.5, 100 mM NaCl, 1.5 mM MgCl2, 0.4 uM protein, 0.1 uM dsDNA library, 30 min, room temperature, amylose pull-down; high values mean tight binding; double strand, one strand shown.
T1 sequence: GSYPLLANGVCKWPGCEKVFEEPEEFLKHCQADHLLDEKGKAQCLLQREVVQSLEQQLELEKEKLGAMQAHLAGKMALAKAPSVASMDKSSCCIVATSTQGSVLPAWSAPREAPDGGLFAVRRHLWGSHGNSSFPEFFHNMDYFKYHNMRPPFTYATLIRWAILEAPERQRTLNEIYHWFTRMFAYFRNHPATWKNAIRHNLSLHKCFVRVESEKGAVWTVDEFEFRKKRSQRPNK
“GATGATTGTTCTCCCAGCTGATGAATTACTCCCCTCGAGTAAACAAATTTTCCTAATCTTTCTGTTCAAGCGCCATCTAC” showed a binding signal (RPM ratio (pull-down/input)) of 0.281. Sequence “GATGATTGTTCTCCCAGCTGATGAATTGCCGAAGTCGAGTAAACAAATTTTCCTAATCTTTCTGTTCAAGCGCCATCTAC” has a binding signal (RPM ratio (pull-down/input)) of 0.358. In the case of “GATGATTGTTCTCCCAGCTGATGAATTCAATATCTCGAGTAAACAAATTTTCCTAATCTTTCTGTTCAAGCGCCATCTAC”, the binding signal (RPM ratio (pull-down/input)) is reported as 0.952. With “GATGATTGTTCTCCCAGCTGATGAATTACAGCCATCGAGTAAACAAATTTTCCTAATCTTTCTGTTCAAGCGCCATCTAC” the binding signal (RPM ratio (pull-down/input)) was 1.14. Sequence “GATGATTGTTCTCCCAGCTGATGAATTCTAATTTTCGAGTAAACAAATTTTCCTAATCTTTCTGTTCAAGCGCCATCTAC” has a binding signal (RPM ratio (pull-down/input)) of 0.566. For “GATGATTGTTCTCCCAGCTGATGAATTCTGAATTTCGAGTAAACAAATTTTCCTAATCTTTCTGTTCAAGCGCCATCTAC”, the binding signal (RPM ratio (pull-down/input)) was 1.22. For “GATGATTGTTCTCCCAGCTGATGAATTGCGATCTTCGAGTAAACAAATTTTCCTAATCTTTCTGTTCAAGCGCCATCTAC”, the binding signal (RPM ratio (pull-down/input)) was 0.844. Work on “GATGATTGTTCTCCCAGCTGATGAATTCGCCTCCTCGAGTAAACAAATTTTCCTAATCTTTCTGTTCAAGCGCCATCTAC” yielded a binding signal (RPM ratio (pull-down/input)) of 2.15. “GATGATTGTTCTCCCAGCTGATGAATTAAAACATTCGAGTAAACAAATTTTCCTAATCTTTCTGTTCAAGCGCCATCTAC” showed a binding signal (RPM ratio (pull-down/input)) of 0.944. “GATGATTGTTCTCCCAGCTGATGAATTAGACCCTTCGAGTAAACAAATTTTCCTAATCTTTCTGTTCAAGCGCCATCTAC” showed a binding signal (RPM ratio (pull-down/input)) of 0.334. “GATGATTGTTCTCCCAGCTGATGAATTGCGTGGCTCGAGTAAACAAATTTTCCTAATCTTTCTGTTCAAGCGCCATCTAC” was tested, and the binding signal (RPM ratio (pull-down/input)) was 1.35. “GATGATTGTTCTCCCAGCTGATGAATTAGGGCAGTCGAGTAAACAAATTTTCCTAATCTTTCTGTTCAAGCGCCATCTAC” gave a binding signal (RPM ratio (pull-down/input)) of 0.376. With “GATGATTGTTCTCCCAGCTGATGAATTGGGCTTGTCGAGTAAACAAATTTTCCTAATCTTTCTGTTCAAGCGCCATCTAC” the binding signal (RPM ratio (pull-down/input)) was 2.4. In the case of “GATGATTGTTCTCCCAGCTGATGAATTCAGCGTCTCGAGTAAACAAATTTTCCTAATCTTTCTGTTCAAGCGCCATCTAC”, the binding signal (RPM ratio (pull-down/input)) is reported as 3.42. Sequence “GATGATTGTTCTCCCAGCTGATGAATTGTTCACGTCGAGTAAACAAATTTTCCTAATCTTTCTGTTCAAGCGCCATCTAC” has a binding signal (RPM ratio (pull-down/input)) of 0.396. “GATGATTGTTCTCCCAGCTGATGAATTTGTAAGGTCGAGTAAACAAATTTTCCTAATCTTTCTGTTCAAGCGCCATCTAC” gave a binding signal (RPM ratio (pull-down/input)) of 1.8. “GATGATTGTTCTCCCAGCTGATGAATTGATCGATTCGAGTAAACAAATTTTCCTAATCTTTCTGTTCAAGCGCCATCTAC” showed a binding signal (RPM ratio (pull-down/input)) of 0.337. With “GATGATTGTTCTCCCAGCTGATGAATTGTTATGTTCGAGTAAACAAATTTTCCTAATCTTTCTGTTCAAGCGCCATCTAC” the binding signal (RPM ratio (pull-down/input)) was 3.51. “GATGATTGTTCTCCCAGCTGATGAATTGACGCACTCGAGTAAACAAATTTTCCTAATCTTTCTGTTCAAGCGCCATCTAC” gave a binding signal (RPM ratio (pull-down/input)) of 1.04. “GATGATTGTTCTCCCAGCTGATGAATTGCGAATGTCGAGTAAACAAATTTTCCTAATCTTTCTGTTCAAGCGCCATCTAC” gave a binding signal (RPM ratio (pull-down/input)) of 1.16. For “GATGATTGTTCTCCCAGCTGATGAATTCTGACAATCGAGTAAACAAATTTTCCTAATCTTTCTGTTCAAGCGCCATCTAC”, the binding signal (RPM ratio (pull-down/input)) was 0.395. Work on “GATGATTGTTCTCCCAGCTGATGAATTAATGATTTCGAGTAAACAAATTTTCCTAATCTTTCTGTTCAAGCGCCATCTAC” yielded a binding signal (RPM ratio (pull-down/input)) of 1.13. For “GATGATTGTTCTCCCAGCTGATGAATTGTCTTGTTCGAGTAAACAAATTTTCCTAATCTTTCTGTTCAAGCGCCATCTAC”, the binding signal (RPM ratio (pull-down/input)) was 0.854. “GATGATTGTTCTCCCAGCTGATGAATTATTCCTCTCGAGTAAACAAATTTTCCTAATCTTTCTGTTCAAGCGCCATCTAC” was tested, and the binding signal (RPM ratio (pull-down/input)) was 0.338. With “GATGATTGTTCTCCCAGCTGATGAATTACAACTTTCGAGTAAACAAATTTTCCTAATCTTTCTGTTCAAGCGCCATCTAC” the binding signal (RPM ratio (pull-down/input)) was 0.849. Work on “GATGATTGTTCTCCCAGCTGATGAATTCCTGGAGTCGAGTAAACAAATTTTCCTAATCTTTCTGTTCAAGCGCCATCTAC” yielded a binding signal (RPM ratio (pull-down/input)) of 0.177. With “GATGATTGTTCTCCCAGCTGATGAATTATTATAATCGAGTAAACAAATTTTCCTAATCTTTCTGTTCAAGCGCCATCTAC” the binding signal (RPM ratio (pull-down/input)) was 0.552. Sequence “GATGATTGTTCTCCCAGCTGATGAATTGAAACGATCGAGTAAACAAATTTTCCTAATCTTTCTGTTCAAGCGCCATCTAC” has a binding signal (RPM ratio (pull-down/input)) of 0.283. Sequence “GATGATTGTTCTCCCAGCTGATGAATTGTCGTAATCGAGTAAACAAATTTTCCTAATCTTTCTGTTCAAGCGCCATCTAC” has a binding signal (RPM ratio (pull-down/input)) of 1.03. For “GATGATTGTTCTCCCAGCTGATGAATTTGAAGATTCGAGTAAACAAATTTTCCTAATCTTTCTGTTCAAGCGCCATCTAC”, the binding signal (RPM ratio (pull-down/input)) was 0.277. Work on “GATGATTGTTCTCCCAGCTGATGAATTTGAGGGGTCGAGTAAACAAATTTTCCTAATCTTTCTGTTCAAGCGCCATCTAC” yielded a binding signal (RPM ratio (pull-down/input)) of 0.728. “GATGATTGTTCTCCCAGCTGATGAATTATGGATCTCGAGTAAACAAATTTTCCTAATCTTTCTGTTCAAGCGCCATCTAC” showed a binding signal (RPM ratio (pull-down/input)) of 0.445. “GATGATTGTTCTCCCAGCTGATGAATTCTGAGTATCGAGTAAACAAATTTTCCTAATCTTTCTGTTCAAGCGCCATCTAC” was tested, and the binding signal (RPM ratio (pull-down/input)) was 0.691. “GATGATTGTTCTCCCAGCTGATGAATTAACTAGGTCGAGTAAACAAATTTTCCTAATCTTTCTGTTCAAGCGCCATCTAC” showed a binding signal (RPM ratio (pull-down/input)) of 0.214. With “GATGATTGTTCTCCCAGCTGATGAATTACCAGTGTCGAGTAAACAAATTTTCCTAATCTTTCTGTTCAAGCGCCATCTAC” the binding signal (RPM ratio (pull-down/input)) was 0.421. With “GATGATTGTTCTCCCAGCTGATGAATTTTGCCAGTCGAGTAAACAAATTTTCCTAATCTTTCTGTTCAAGCGCCATCTAC” the binding signal (RPM ratio (pull-down/input)) was 2.91. For “GATGATTGTTCTCCCAGCTGATGAATTATACTTGTCGAGTAAACAAATTTTCCTAATCTTTCTGTTCAAGCGCCATCTAC”, the binding signal (RPM ratio (pull-down/input)) was 1.05. Work on “GATGATTGTTCTCCCAGCTGATGAATTCGAACTTTCGAGTAAACAAATTTTCCTAATCTTTCTGTTCAAGCGCCATCTAC” yielded a binding signal (RPM ratio (pull-down/input)) of 0.271. “GATGATTGTTCTCCCAGCTGATGAATTCTCTCGCTCGAGTAAACAAATTTTCCTAATCTTTCTGTTCAAGCGCCATCTAC” gave a binding signal (RPM ratio (pull-down/input)) of 0.226. In the case of “GATGATTGTTCTCCCAGCTGATGAATTCCGGCAGTCGAGTAAACAAATTTTCCTAATCTTTCTGTTCAAGCGCCATCTAC”, the binding signal (RPM ratio (pull-down/input)) is reported as 0.341.
